The values that follow come from publication PMC12136788.

B1: chr7:98534794:98534795:+_ENSG00000196367_ENST00000456197|hu_hu|FALSE|FALSE (ssRNA)
RNA: GGGAGUUCUACAGUCCGACGAUCUCAGGGCUUUGAAGAGUGCAGCGAUGAUUUUCUCCCUGGACUGAGGAAGGUAAUUGCAGGCAGCAAGUGCAUUUAAUGCCGCAAUUCGUAAAGGUACGAGUGACGGAAGGCUUUUAUAACCAACAGAGGAUUGAGCAUCA
B2: chr22:32894248:32894249:+_ENSG00000100225_ENST00000397426|hu_mus|FALSE|FALSE (ssRNA)
RNA: GGGAGUUCUACAGUCCGACGAUCAGGCAGUAUCGGCCUCUCAUCAUAUUCACCACCAAUGAUUCCUGGAGGAAGCAGCGAGGUGGGAAGGUAGGCCCUGGGGUAGACGGGAAUGGGACAAAAUGGGAUAGGGUGGGCUGAUGGCAACAGAGGAUUGAGCAUCA
B3: chr1:163112212:163112213:-_ENSG00000143248_ENST00000313961|hu_hu|hu_hu_hu_mus_False|28_48 (ssRNA)
RNA: GGGAGUUCUACAGUCCGACGAUCUUUUAUUAUCAGUAAGAGUGAGUUACAUACUAGGCAAAGUAUUGGAUACAAUAAUCAGGAAACAAACACAAUUGGUCCAGAAUUUAAAAUAUAAUGAGCGAAGUGCUGGCACAGGACUUACAACAGAGGAUUGAGCAUCA
B4: chr7:141438946:141438947:+_ENSG00000106028_ENST00000265304|hu_hu|FALSE|FALSE (ssRNA)
RNA: GGGAGUUCUACAGUCCGACGAUCAAGUACCUGUAAUACAGGUCUUCGAAACAUGGCUUCUAUUUUCUUUUCUUACAGUCUAAUCUUUAGGCUUUUCCUGACGAUCUAACCCGAGCAGCCCAGCCACGCAGGGGAUCACUUCCGCAACAGAGGAUUGAGCAUCA
B5: chr7:150710151:150710152:-_ENSMUSG00000059119_ENSMUST00000072727|mus_mus|FALSE|FALSE (ssRNA)
RNA: GGGAGUUCUACAGUCCGACGAUCGACAGCCCGUGGCACGAUGCGCUCACGAAAAAAGUGCCCAAUUUCAAAGUCAGAGGCUAAGGUGAACUCGGAAUCUUCAUCCAGAGAUUCUCCAUCUCCAGAGGCUUUCAGGGGGCUGAACAACAGAGGAUUGAGCAUCA
B6: chr17:65740002:65740003:+_ENSG00000130935_ENST00000581375|hu_hu|hu_hu_hu_mus_False|28_108 (ssRNA)
RNA: GGGAGUUCUACAGUCCGACGAUCAACCCGUUCUUGCUCCCUGGACGAACAGGAAGAUUCAUAUUAAAAAAAAUAUAUAUCCAUCAAGUUAGGUGUGGUGGCCACACAGAGCUCCAGAGCACUUUGGGAGGUGGAUCUCUGAGUCAACAGAGGAUUGAGCAUCA
B7: 7811237_7811739_5290_CDS_ENSG00000170004_ENST00000380358|human|control|control (ssRNA)
RNA: GGGAGUUCUACAGUCCGACGAUCCUGCCACAGUGUGUGAAGCUCUGUGAAGCCACCAUCGGCGAUAUUGAACAUGAACCGGGGCUUCUCUGUCUUUUCCUCUCGUCGCCCAUUGGACCGUGGCUCAUCUCGAGGCCCUGGUCGCAACAGAGGAUUGAGCAUCA
B8: chr11:76780297:76780298:+_ENSMUSG00000020840_ENSMUST00000021197|mus_mus|motif|central (ssRNA)
RNA: GGGAGUUCUACAGUCCGACGAUCGAAGUCAAUGGGCUGGUUGUUAUACAGCGUUUUUCUCCCUCCAACCAUAUUGCUCAAGUAGUCGGCUGUGUACAAUUUAUUGUACUUGUGCUGGGGCCGUGGGUCAUUCACAAAACAAAUCAACAGAGGAUUGAGCAUCA
B9: chr22:19452774:19452775:-_ENSG00000070010_ENST00000399523|hu_hu|hu_hu_hu_mus_False|1_88 (ssRNA)
RNA: GGGAGUUCUACAGUCCGACGAUCCUUCUCAUUGUAGUUGAUAGCAAUCACAUCCCCAGUCGUCAGACAGGCGAAGUUUCUCAAUGCAUUUUCUAAUACCGCUUUAGGGUUGGUAAUAUCCAGGAAGUCUGGGCUCUGAGGUUGCAACAGAGGAUUGAGCAUCA
B10: chrX:41000244:41000245:+_ENSG00000124486_ENST00000378308|hu_mus|FALSE|FALSE (ssRNA)
RNA: GGGAGUUCUACAGUCCGACGAUCUGCUUCUUUCUUCAGCUCUUCAUCAGUUAAGUUUUCUAAAAACUGUGGAACCAUUUCUAUUAUUGGAAGAAAGUACUUUUUCACUGUGUGAAGAGUAAGAAACUCAUAGCACUGUCCAAACAACAGAGGAUUGAGCAUCA
B11: chr17:64801638:64801639:+_ENSG00000154229_ENST00000413366|hu_mus|hu_hu_hu_mus_False|1_58 (ssRNA)
RNA: GGGAGUUCUACAGUCCGACGAUCUAUAUAUAUAUAUACAUAUGUACACAUAUAUAGUAAAACCCUAGUUAAACGUGUAAACUAGCCAUUCAUUUUUAAAAUUACAUCUACAUUAAAAAAUUAAUAUAUCUGAUAGAGUGCCCACAACAGAGGAUUGAGCAUCA
B12: chr14:17255229:17255230:+_ENSMUSG00000017485_ENSMUST00000017629|mus_mus|motif|central (ssRNA)
RNA: GGGAGUUCUACAGUCCGACGAUCAACAAAUUCAUCUUCCCCAUCAUUUGUUAUGGGAGAUGCUUUAACUUUCAGUUCUUCGGAAUCAUUACUGUCAUCAGCAGCAGCAGCAUCAUCAUCCUCCUCUUCUGAGAAAUCAAAAGUCAACAGAGGAUUGAGCAUCA
B13: chr18:9859796:9859797:+_ENSG00000168461_ENST00000578921|hu_mus|FALSE|FALSE (ssRNA)
RNA: GGGAGUUCUACAGUCCGACGAUCGUCCAGCUGUGCAUCUCUGAUCUCCCUCAGAAAACUAAUAAAGACUUACUUCCAAAGCCAGCUAAGCGCUAACCUCCUAUUAUAGCCUUUGCCUUUUGGUGAACUGGCCAGAAAGGAAGGCAACAGAGGAUUGAGCAUCA
B14: chr18:56819859:56819860:+_ENSG00000166562_ENST00000588875|hu_mus|hu_hu_hu_mus_True|18_108 (ssRNA)
RNA: GGGAGUUCUACAGUCCGACGAUCAACUUUGAUUACUCUGUGAACUAUCGGAAUGUCUCUUCCUUCAACCUUAAAAACAACUAUUUCACCAGCUCUGAUGGGGUCCUCCCGGAAAUUUGUGAGGAACAGCAGAUCUCCUCUGUGCAACAGAGGAUUGAGCAUCA
B15: chr3:167437968:167437969:-_ENSG00000114209_ENST00000497056|hu_mus|motif|central (ssRNA)
RNA: GGGAGUUCUACAGUCCGACGAUCUUCAUCUCUUCCAUUGUCAUCCUCAUUCAAAAGCCAACUACAGUAGAAAAAGCAAUGCGGAAAUGCAGAGGAAUCUUCAUUCACUGCCGAAUUUCUUCCCUUUUUUAUGUGUAUGUGAUACAACAGAGGAUUGAGCAUCA
B16: chr1:46159212:46159213:+_ENSG00000159596_ENST00000372025|hu_mus|hu_hu_hu_mus_True|98_108 (ssRNA)
RNA: GGGAGUUCUACAGUCCGACGAUCUCUGAUCCCACCCAAGAAAGAUAGGAAACCGGCUCCAUAAGCCAUCUGAGUGAAAGCUAGGACGGGGAUAUAAGACUUUGUUAUUACCAUGAGAAGUGGGGGAGCAGUAAAGGGGAUUAACAACAGAGGAUUGAGCAUCA
B17: 176637606_176637726_2311_3pUTR_ENSG00000165671_ENST00000439151|human|control|control (ssRNA)
RNA: GGGAGUUCUACAGUCCGACGAUCCUUGAUUUGCUGCCCCACCCUUUAUUAACGAGUUCUCACUGGAUAUGCUUGAUGACAGGUUGAAUUUUGGAGAGAGAGCAUCAUUUGUAAAAUCUGACUGGGGUUUGUGAACAAGAGUAGCAACAGAGGAUUGAGCAUCA
B18: chr3:196089228:196089229:-_ENSG00000163960_ENST00000296328|hu_hu|motif|central (ssRNA)
RNA: GGGAGUUCUACAGUCCGACGAUCUUCCCUUUUUCCAUCUGGAUACCGCAACAUCAGCUGUGCUUUUGGUCCAUUUACAUCGGUCCCCUCCACUACUCCAUCUGCUUUUUCAGGUGGCAUCUCCAGUAUCUCUGAAUCCACAGCCAACAGAGGAUUGAGCAUCA
B19: chr2:38870607:38870608:+_ENSMUSG00000026755_ENSMUST00000090993|perfect_dup|FALSE|FALSE (ssRNA)
RNA: GGGAGUUCUACAGUCCGACGAUCUAACAGGAUUUUUUUUUAAACAGUCUUUCUUGCUGUAAGAACUCUUAUAAUGGAGCCUAGUCCUCCUACAGCUAAGGCCUUUUCAUGCCACUGGAGUAGCACUGCACUGCUAUUUUCUGUCAACAGAGGAUUGAGCAUCA
B20: 98611581_98611701_1167_3pUTR_ENSMUSG00000031310_ENSMUST00000121520|mouse|control|control (ssRNA)
RNA: GGGAGUUCUACAGUCCGACGAUCGCUGAGGCAACCCCUUGCGCUGAUAGGCCGUCUGCCCCUUCUGCAGUGGUGUCCGGCAAUGUGCACAAGACAUCUUGGUGCCCAUUGAAGAGCGCCCAGCCCUUUGUGCCAUACUUGAGCCAACAGAGGAUUGAGCAUCA
B21: chr6:53132721:53132722:-_ENSG00000012660_ENST00000304434|hu_hu|motif|central (ssRNA)
RNA: GGGAGUUCUACAGUCCGACGAUCUUACCUGUUUGACCACUGCCUCAAAUGUGUGAGAUGUGAUUUUAUGAUAAGCAGUCGGUUAUUUUUAAACAAGAGGUUCUAAACACAUCUUUAGAUUCUAAGCAGAAAGAAAUUACAAGUCAACAGAGGAUUGAGCAUCA
B22: chr5:4806066:4806067:-_ENSMUSG00000028926_ENSMUST00000030763|mus_mus|motif|central (ssRNA)
RNA: GGGAGUUCUACAGUCCGACGAUCUCACCCUGUCUUUGUUUUCCAUGUUUAUUUCUCUACCUGCUCAGAAACAGUCAGGCGGUUGAAAUAGCAAGUGGAUUUUGGUCUCCUGUGUAAAUGUGUGCUCAUUUCCAAUAAAAAACGCAACAGAGGAUUGAGCAUCA

Some of the results follow.

This test addresses T1, UNK ZnF1-3 (human, UniProt Q9C0B0 31-174).
T1 sequence: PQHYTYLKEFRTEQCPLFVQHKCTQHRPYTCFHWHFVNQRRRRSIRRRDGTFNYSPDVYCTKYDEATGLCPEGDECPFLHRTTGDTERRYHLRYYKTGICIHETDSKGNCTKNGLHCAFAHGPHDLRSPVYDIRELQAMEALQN
The experiment in a line: nsRBNS (natural sequence RNA bind-n-seq); RBNS binding buffer (assumed for nsRBNS): 25 mM Tris pH 7.5, 150 mM KCl, 3 mM MgCl2, 0.01% Triton X-100, 500 ug/ml BSA, 20 U/ml SUPERase-In, 4 C; UNK is unkempt and MSI1 is Musashi-1; names of the RNAs are library labels; protein concentration not given here; high values mean tight binding.
B1 gave a binding signal of 1.34 enrichment R.
On to B2, for which the binding signal worked out at 1.6 enrichment R.
B3 displayed a binding signal of 1.93 enrichment R.
For B4, the binding signal stood at 0.777 enrichment R.
Consider B5, for which the binding signal was found to be 1.2 enrichment R.
Then B6, with 1.51 enrichment R; and B7, with 0.657 enrichment R; and B8, with 0.66 enrichment R.
As to B9, the binding signal was 0.802 enrichment R.
For B10, the binding signal is 0.713 enrichment R.
B11 had a binding signal of 0.891 enrichment R.
B12 registered a binding signal of 1.18 enrichment R.
B13 yielded a binding signal of 1.27 enrichment R.
Then B14, with 0.738 enrichment R.
The molecule B15 gave a binding signal of 1.32 enrichment R.
B16: the binding signal is 1.52 enrichment R.
Take B17: the binding signal came out at 2.28 enrichment R.
Take B18: the binding signal came out at 0.863 enrichment R.
In the case of B19, the binding signal amounted to 0.657 enrichment R.
In turn, B20 displayed a binding signal of 0.705 enrichment R.
Under B21 stands 1.36 enrichment R.
Then B22, with 1.14 enrichment R.
